The results in this text go back to patent US20170029529A1 (Hoffmann-La Roche, published 2017).

The test concerns the target Her2 (recombinant Her2 antigen, Example 4) (human, UniProt P04626 in part, limits assumed). As to the kind of experiment: SPR ProteOn, Her2 on chip; pH 7.4 t0 dup2.

B1: Trastuzumab variant VH:D98E/VL:N30S (antibody, V domains shown)
VH: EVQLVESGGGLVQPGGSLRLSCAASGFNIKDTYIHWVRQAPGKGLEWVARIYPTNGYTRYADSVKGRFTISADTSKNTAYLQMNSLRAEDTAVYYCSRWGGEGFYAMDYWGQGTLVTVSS
VL: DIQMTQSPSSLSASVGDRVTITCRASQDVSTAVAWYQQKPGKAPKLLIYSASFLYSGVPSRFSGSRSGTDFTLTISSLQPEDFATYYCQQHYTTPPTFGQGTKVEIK
Consider B1, for which the Kd is 0.0946 nM.

In general, Kd refers to a measure of binding affinity in units of concentration.
